We go through 14 molecules from publication PMC12136788.

The other results are listed elsewhere or left out.

First the molecules themselves.
T1: UNK ZnF1-6 (called full-length) (human, UniProt Q9C0B0 30-357)
T1 sequence: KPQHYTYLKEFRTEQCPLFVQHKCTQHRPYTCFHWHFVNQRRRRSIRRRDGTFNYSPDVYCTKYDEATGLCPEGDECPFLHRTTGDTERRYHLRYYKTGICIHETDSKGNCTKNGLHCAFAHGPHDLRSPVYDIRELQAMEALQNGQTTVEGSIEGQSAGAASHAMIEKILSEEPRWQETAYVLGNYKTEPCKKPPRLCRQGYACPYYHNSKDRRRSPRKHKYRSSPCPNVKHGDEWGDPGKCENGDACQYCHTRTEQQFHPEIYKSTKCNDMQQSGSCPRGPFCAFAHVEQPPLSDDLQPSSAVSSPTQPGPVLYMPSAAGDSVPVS

B1: chr11:4094911:4095012:+|5pUTR|ENSG00000167325|unk|total|mutant (ssRNA)
RNA: GGGAGUUCUACAGUCCGACGAUCAGCAGCGCCUGGAACCUAACCCUUCCCACUCUGUCACCUUCUCGAUCCCGCCGGCGCUUCCGAGCCGCAGUCCAGUCUUGGAUCCUUCAGAGCCUCAGCCACCCGCUGCGAUGCAUGUGACAACAGAGGAUUGAGCAUCA
B2: chr6:158785413:158785514:-|CDS|ENSG00000092820|msi1|total|mutant (ssRNA)
RNA: GGGAGUUCUACAGUCCGACGAUCGAGCUCAUCCAGGACAUCACCCAGAAACUUUUCUUCCUCCAAGUGAAGGAAGGAAUCCUCCGCGAUGAGAUCUACUGCCCCCCUGAGACUGCCGUGCUCUUGGGGUCCUACGCUGUGCAGCAACAGAGGAUUGAGCAUCA
B3: chr6:89938216:89938327:-|CDS|ENSG00000112182|unk|total|mutant (ssRNA)
RNA: GGGAGUUCUACAGUCCGACGAUCUCUUCCAAGGAACGAUUUCCAGAUGAUGAUUAAAAUGCACAAGCUAACCUCAGAACAGUCCGAGUUUAUUCAUGAUGUCCGACGGCGCAGCAAGAACCGCAUCGCGGCCCAGCGCUGCCGCAACAGAGGAUUGAGCAUCA
B4: chr10:24583932:24584033:-|3pUTR|ENSG00000107863|unk|total|mutant (ssRNA)
RNA: GGGAGUUCUACAGUCCGACGAUCAACAAAAGUGCCUCAUCAUAAAAAUACAGUUGGUUUUCCGGGUGCCAUAUUGUUAAAAUCCGAUAACUUACUUACAUUGAAUAAACGAAUGCGUUUUAUUGGUAACAGAUAUCAUUACAUCAACAGAGGAUUGAGCAUCA
B5: chr7:130192614:130192715:-|CDS|ENSG00000146842|msi1|FALSE|unique (ssRNA)
RNA: GGGAGUUCUACAGUCCGACGAUCUACAUGACCGACCUACGAACUUUGGAUACUUUUCUCAGAAGUGAAGAGGAGAAACAGCAUAGGGUUAAGCUGGGUACAUAUAUAUUUCUGUAUAUCUACUAUACAUAUUUUUGGUGUCAACAACAGAGGAUUGAGCAUCA
B6: ENSG00000198837:stop:overlap|stop_codon|ENSG00000198837|stop_codon|NA|stop_codon (ssRNA)
RNA: GGGAGUUCUACAGUCCGACGAUCAGAUGCCCACUCCCAAGGCCAUUGACUGCCGAAAAUGUUUUGGAGCACCUCCAGAAUGCUAGAGACCUUAAGCUUCCCUCUCCAGCCUAGGGUGGGGAAGUGAGGAAGAAGGGAUUCUAGCAACAGAGGAUUGAGCAUCA
B7: ENSG00000070961:be:win_1851|CDS|ENSG00000070961|bound_else_gene|NA|bound_elsewhere_windowed (ssRNA)
RNA: GGGAGUUCUACAGUCCGACGAUCUAAUGGUGAGGCAAAAGUAUUCAGACCAAGGGACCGUGAUGAUAUUGUAAAAACUGUGAUUGAACCGAUGGCAUCAGAAGGCUUGAGAACCAUAUGUCUUGCAUUCAGAGAUUUUCCAGCCAACAGAGGAUUGAGCAUCA
B8: chr19:17262551:17262990:-|CDS|ENSG00000130307|control|control|control (ssRNA)
RNA: GGGAGUUCUACAGUCCGACGAUCUGCCAGCGAGAGGCAGCUCGCCUGGCCGAGAGGAAUGCCUGGCUCCGGCUGGCCCUGAGUAGCCGAGAGGAUGAGCUGGUCCGCACGCAGGCCUCCCUGGAGGCCAUCCGAGCUGAGAAGCAACAGAGGAUUGAGCAUCA
B9: chr8:17969608:17969733:+|CDS|ENSG00000078674|unk|total|mutant (ssRNA)
RNA: GGGAGUUCUACAGUCCGACGAUCUUCUAAUUUUGGAGAUUUUUCUCAGAAUAUCUCUACACCCAGUGAACAGCAGCAACCCUCCGCCCAGAAUUCUUCAGGAAAAACAGAAUAUAUGGCUUUUCCAAAACCUUUUGAAAGCAGCAACAGAGGAUUGAGCAUCA
B10: chr12:67313014:67313056:+|3pUTR|ENSG00000111530|msi1_unk|FALSE|overlapping (ssRNA)
RNA: GGGAGUUCUACAGUCCGACGAUCUUUUUGUAGCAUUUAUUUCAGAAAUGUGUAUUUCCAUAAUCCAGAGGUUGUAAAACCACUAGUGUUUUAGUGGUUACAGCAACAUUUGAAAUGGAAACUAAAAGUUAGGAUUUUAUGGAGCAACAGAGGAUUGAGCAUCA
B11: ENSG00000196396:stop:overlap|stop_codon|ENSG00000196396|stop_codon|NA|stop_codon (ssRNA)
RNA: GGGAGUUCUACAGUCCGACGAUCCUACGGUCCUCACGGCCGGCGCUUACCUCUGCUACAGGUUCCUGUUCAACAGCAACACAUAGCCUGACCCUCCUCCACUCCACCUCCACCCACUGUCCGCCUCUGCCCGCAGAGCCCACGCAACAGAGGAUUGAGCAUCA
B12: chr11:26667019:26671251:-|three_prime_utr|ENSG00000148942|control|control|control (ssRNA)
RNA: GGGAGUUCUACAGUCCGACGAUCACACACACGUGCAAUACACACACACACACACAAACUCCACAUACUUCUUGCCUACUUGUUAGUAGAUAUGUAUAGUUGCCAUUGCUAGAAGACAGGGAUGUCUGGUGCCUAUUUCUACUUCAACAGAGGAUUGAGCAUCA
B13: chr11:47420279:47420382:-|CDS|ENSG00000165916|unk|total|mutant (ssRNA)
RNA: GGGAGUUCUACAGUCCGACGAUCAAACAGGGUGGACAUCCUGGACCCCGCCCUCCUCCGCUCGGGCCGCCUUGACCGCAAGACCGAGUUCCCGAUGCCCAAUGAGGAGGCCCGGGCCAGAAUCAUGCAGAUCCACUCCCGAAACAACAGAGGAUUGAGCAUCA
B14: chr5:6669452:6669553:+|3pUTR|ENSG00000145545|unk|total|mutant (ssRNA)
RNA: GGGAGUUCUACAGUCCGACGAUCCAUCUCAUCUGGAGUUUUUAAAUGCCAUUUGUUUCAGUUGUCUUUAACAACAUAAUAAACCGACUUUGCCAUUUAACAAGGCCGCUCAAAUUCUUUUACUAAUUGUUACAUCGAAACAUUCAACAGAGGAUUGAGCAUCA

The assay concerns the target T1, UNK ZnF1-6 (called full-length). In words: nsRBNS (natural sequence RNA bind-n-seq); RBNS binding buffer (assumed for nsRBNS): 25 mM Tris pH 7.5, 150 mM KCl, 3 mM MgCl2, 0.01% Triton X-100, 500 ug/ml BSA, 20 U/ml SUPERase-In, 4 C; UNK is unkempt and MSI1 is Musashi-1; names of the RNAs are library labels; protein concentration not given here; high values mean tight binding.
Molecule B1 gave a binding signal of 0.809 enrichment R.

For the molecule B2, the binding signal worked out at 0.554 enrichment R.

B3: the binding signal is 0.383 enrichment R.

Regarding B4, the binding signal was 0.341 enrichment R.

The molecule B5 yielded a binding signal of 0.506 enrichment R.

Regarding B6, the binding signal stood at 0.858 enrichment R.

On to B7, for which the binding signal was found to be 0.481 enrichment R.

B8 showed a binding signal of 0.907 enrichment R.

As for B9, the binding signal worked out at 0.457 enrichment R.

Regarding B10, the binding signal is 0.85 enrichment R.

The molecule B11 came in with a binding signal of 0.465 enrichment R.

For B12, the binding signal came out at 0.932 enrichment R.

Molecule B13 returned a binding signal of 0.632 enrichment R.

Molecule B14 showed a binding signal of 0.527 enrichment R.
